Reference: PubChem BioAssay AID1476 (National Center for Advancing Translational Sciences (NCATS), 2009)
Hit rate of the full screen: of about 200,000 compounds, about 4,500 (2.2%) were called active. This list was built around the results that the source calls inconclusive (neither active nor inactive); the mix of calls is not that of the screen. The call rests on the fitted dose curve; in most records, active means well fitted inhibition curve with a large enough effect; inconclusive means small, poorly fitted or top-dose-only effect, or effect the other way; inactive means flat fitted curve, though single readings scatter. Potencies beside an inconclusive call are fits to weak or partial responses and may not hold up.
Further: nearly all actives have a fitted effect of over 40% in size.
Potency means the concentration at half of the fitted maximal effect; tags describe the fitted curve by direction and shape.
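Wherever max response, negative = inhibition is given: plate controls were enzyme without inhibitor for no effect and buffer without enzyme for full effect.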

These compounds were tested against Cruzipain (Trypanosoma cruzi) (UniProt P25779) (assay: qHTS Assay for Promiscuous and Specific Inhibitors of Cruzain (without detergent)). Conditions: purified cruzain, Z-FR-AMC fluorescence, no detergent.
Sequence of UniProt P25779 (P25779 whole entry, looked up): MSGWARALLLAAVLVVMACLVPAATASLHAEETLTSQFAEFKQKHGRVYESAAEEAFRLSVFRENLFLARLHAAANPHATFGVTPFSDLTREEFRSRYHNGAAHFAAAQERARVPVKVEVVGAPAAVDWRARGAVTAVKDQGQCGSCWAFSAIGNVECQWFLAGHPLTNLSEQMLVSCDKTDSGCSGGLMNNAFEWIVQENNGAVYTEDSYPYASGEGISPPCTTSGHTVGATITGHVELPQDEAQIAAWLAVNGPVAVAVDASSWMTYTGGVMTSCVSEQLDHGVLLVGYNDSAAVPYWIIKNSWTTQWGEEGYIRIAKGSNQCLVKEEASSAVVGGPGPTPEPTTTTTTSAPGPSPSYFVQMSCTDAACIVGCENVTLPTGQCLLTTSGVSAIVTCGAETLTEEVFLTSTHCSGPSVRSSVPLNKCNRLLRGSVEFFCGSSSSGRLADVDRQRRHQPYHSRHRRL
Method in brief: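 Purified cruzain at 1.5 nM, pre-incubated 15 min with compound at room temperature in 100 mM sodium acetate pH 5.5, 5 mM DTT, 0.00005% Triton X-100. Reaction started with 2 uM Z-FR-AMC; AMC fluorescence increase over 60 s gives rate.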
For `O=C(CSCc1cnn(-c2ccccc2)c1-n1cccc1)NCc1ccc(F)cc1`, the max response, negative = inhibition was inactive: -12.7%. For `COc1ccc(NC(=O)CSc2nc(-c3cccs3)cc(C(F)(F)F)n2)c(OC)c1`, the max response, negative = inhibition was inactive: -1.91%. With `CCN1CC=C2C(C1)C(c1ccc(Cl)s1)C(C#N)=C(N)C2(C#N)C#N` (centres undefined) the Potency was active: 25.1 µM. For `CC(=O)N1N=C(c2ccccc2)CC1c1cn(Cc2ccccc2)c2ccccc12` (centres undefined), the Potency was inconclusive: 39.8 µM [inhibitor, single point]. For `COc1ccc(OC)c(-c2cc(C(=O)Nc3sc4c(c3C#N)CCC(C)C4)c3ccccc3n2)c1` (centres undefined), the Potency was inconclusive: 3.16 µM [inhibitor, full curve]. `CCOC(=O)c1sc(NC(=O)CSc2nnc(-c3ccc(OC)cc3)n2CCOC)nc1C` was tested, and the Potency was inconclusive: 31.6 µM [activator, single point]. With `Cc1nn(-c2nc3ccccc3[nH]2)c(N)c1-c1ccc(Cl)cc1` the Potency was inconclusive: 39.8 µM [inhibitor, single point]. For `Cc1ccccc1Cn1cnc2nc3c(cc2c1=O)CC(C)CC3` (centres undefined), the max response, negative = inhibition was inactive: 24.6%. With `COc1ccc(-c2cc(=O)c3ccc(F)cc3[nH]2)cc1` the max response, negative = inhibition was inactive: 0.115%. In the case of `Cc1ccc(-n2c(SCC(=O)Nc3cc(S(=O)(=O)N4CCOCC4)ccc3Cl)nc3ccccc3c2=O)cc1`, the Potency is reported as inconclusive: 39.8 µM [inhibitor, single point]. For `COc1cc(C(C(=O)NC2CCCCC2)N(C(=O)Cc2c[nH]c3ccccc23)c2ccc(C)cc2)cc(OC)c1OC` (centres undefined), the Potency was inconclusive: 25.1 µM [activator, single point]. For `CCC(NC(=O)c1ccccc1NC(=O)c1ccco1)C(=O)O` (centres undefined), the max response, negative = inhibition was inactive: -5.59%. In the case of `CCOC(=O)c1ccc(NC(=O)c2ccc(CN3C(=O)CCn4nc(C)cc43)cc2)cc1`, the max response, negative = inhibition is reported as inactive: 19.6%. `Cc1ccccc1C(=O)N1CCC(N2CCN(Cc3ccc(F)cc3)C(=O)C2=O)CC1` was tested, and the max response, negative = inhibition was inactive: -9.4%. In the case of `COC(=O)CCCC1=CC2=C(c3ccccc3)C(=O)C(C)(OC(=O)C3CCCC3)C(=O)C2=CO1` (centres undefined), the max response, negative = inhibition is reported as inactive: 8.47%. For `O=C(CSc1nnc(CNc2ccc(Cl)cc2)n1Cc1ccccc1)NCc1ccco1`, the Potency was inconclusive: 31.6 µM [activator, single point]. `O=C(NC(=S)Nc1ccc(NC(=O)c2cccs2)cc1)c1ccc([N+](=O)[O-])cc1` was tested, and the Potency was active: 12.6 µM. `O=C(c1cnccn1)N1CCC2(CC1)CN(Cc1cc(C(F)(F)F)cc(C(F)(F)F)c1)C2` was tested, and the max response, negative = inhibition was inactive: -9.48%. For `CCOC(=O)C1CCCN(C(=O)c2ccc3c(c2)N(Cc2ccc(Cl)cc2)C(=O)c2ccccc2S3=O)C1` (centres undefined), the Potency was inconclusive: 39.8 µM [activator, single point]. With `CCCCNC(=O)CCn1c(=O)c2ccccc2n(Cc2cccc(Cl)c2)c1=O` the max response, negative = inhibition was inactive: 8.11%. `Cc1ccc2cc(C)c3nnc(SCC(=O)N4CCCc5ccccc54)n3c2c1C` was tested, and the Potency was inconclusive: 39.8 µM [activator, single point]. `O/N=C/c1ccc(-c2cc(Cl)ccc2Cl)o1` was tested, and the Potency was inconclusive: 25.1 µM [inhibitor, single point]. For `CN(C(=O)CSc1nc2ccccc2n1CC(=O)N(C)C1CCCCC1)c1ccccc1`, the max response, negative = inhibition was inactive: -2.8%. `CN(C)S(=O)(=O)c1ccc(C(=O)NCc2ccc3[nH]c4c(c3c2)CCCC4)cc1` was tested, and the Potency was inconclusive: 39.8 µM [inhibitor, single point]. In the case of `Cc1ccc(-n2nc(C)c(C3C(C#N)=C(N)Oc4c3c(=O)oc3ccccc43)c2Cl)cc1` (centres undefined), the Potency is reported as active: 20 µM. `O=C(NC1CC(=O)N(c2ccc(Cl)cc2)C1)C(=O)c1c[nH]c2ccccc12` (centres undefined) was tested, and the Potency was inconclusive: 39.8 µM [inhibitor, single point]. For `CS(=O)(=O)c1cc([N+](=O)[O-])c(Sc2nc3ccccc3[nH]2)c([N+](=O)[O-])c1`, the Potency was inconclusive: 15.8 µM [inhibitor, single point]. `O=C(Cn1c(=O)n(CCc2c[nH]c3ccccc23)c(=O)c2cccnc21)Nc1ccccc1F` was tested, and the Potency was inconclusive: 31.6 µM [inhibitor, single point]. In the case of `O=C(N/N=C\c1ccccc1O)c1ccccc1O`, the Potency is reported as active: 31.6 µM. For `CCOC(=O)C(/C=C(\C#N)C(=O)OCC)=C(/N)N1CCN(c2ccc(OC)cc2)CC1`, the Potency was inconclusive: 25.1 µM [activator, single point]. `COC(=O)c1ccc(N2CCN(S(=O)(=O)c3ccc4ccccc4c3)CC2)c([N+](=O)[O-])c1` was tested, and the Potency was inconclusive: 31.6 µM [inhibitor, single point]. In the case of `COc1ncc2nc(-c3ccccc3)c(=O)n(C3CC3)c2n1`, the max response, negative = inhibition is reported as inactive: -3.14%. For `Cc1ccc(Nc2ccc(N3CCN(C(=O)c4ccc([N+](=O)[O-])cc4Cl)CC3)nn2)cc1`, the Potency was inconclusive: 15.8 µM [inhibitor, partial curve]. With `O=c1c2c3nc4ccccc4nc3n(Cc3ccccc3)c2ncn1Cc1ccco1` the Potency was inconclusive: 25.1 µM [activator, partial curve]. `CCOC(=O)c1sc(Nc2nc3c(F)cccc3s2)cc1C` was tested, and the Potency was active: 15.8 µM. For `CCN(CC)c1ccc(/C=N/c2sc3c(c2C#N)C2CCN3CC2)c(O)c1`, the Potency was inconclusive: 20 µM [inhibitor, single point]. In the case of `COc1cc(NC(=O)C2CCCN(S(=O)(=O)c3cn(C)cn3)C2)cc(OC)c1` (centres undefined), the max response, negative = inhibition is reported as inactive: -6.93%. For `COc1cc(/C=N/Nc2ccc3ccccc3c2)ccc1OC(=O)c1ccco1`, the Potency was active: 25.1 µM. `O=C(Nc1nc(-c2ccc(S(=O)(=O)N3CCCC3)cc2)cs1)C1COc2ccccc2O1` (centres undefined) was tested, and the Potency was active: 10 µM. With `COc1ccc(OC)c(-n2c(SCC(=O)N3CCc4ccccc43)nc3c(c2=O)SCC3)c1` the Potency was inconclusive: 31.6 µM [inhibitor, single point]. With `COC(=O)c1cc2c(-c3ccccc3)cc3ccccn3c-2c1C(=O)OC` the Potency was inconclusive: 39.8 µM [activator, single point]. In the case of `Cc1c(Cl)cccc1NC(=O)CSc1nc(=O)n(CCN2CCOCC2)c2c1CCC2`, the max response, negative = inhibition is reported as inactive: -10.8%. In the case of `CC1CCCN(CCC(=O)c2ccc(Br)cc2)C1` (centres undefined), the Potency is reported as active: 5.01 µM. `CCN(CC)C(=O)CSc1nnc(-c2cc(-c3ccc(Cl)cc3)nc3ccccc23)o1` was tested, and the Potency was inconclusive: 39.8 µM [activator, single point]. For `CC(=O)N1CCc2c(sc3c2c(=O)n(CCc2ccccc2)c(=O)n3Cc2ccc(F)cc2)C1`, the Potency was inconclusive: 20 µM [activator, partial curve]. With `CCCC(=O)Nc1ncnc2c1ncn2[C@@H]1O[C@H]2COP(=O)(O)O[C@@H]2[C@@H]1OC(=O)CCC` the max response, negative = inhibition was inactive: -1.75%. For `CCc1c(C)nc(Nc2nc(C)c3ccc(OC)cc3n2)[nH]c1=O`, the Potency was inconclusive: 31.6 µM [activator, single point]. For `CCCCCC(=O)Nc1nc(C)c(-c2csc(Nc3ccccc3OCC)n2)s1`, the Potency was active: 7.94 µM. In the case of `O=C(NC1CCCCCC1)c1cc(S(=O)(=O)N2CCC3(CC2)OCCO3)ccc1F`, the Potency is reported as inconclusive: 39.8 µM [activator, single point]. `COc1cccc(-c2csc(N3CCN(C(=S)Nc4ccccc4Cl)CC3)n2)c1` was tested, and the Potency was inconclusive: 39.8 µM [inhibitor, single point]. `Fc1ccc(CSc2nc3ncc(Br)cc3[nH]2)cc1` was tested, and the Potency was inconclusive: 39.8 µM [inhibitor, single point]. `COc1ccc(C2C(C(=O)OC(C)C)=C(C)N=c3s/c(=C\c4cccs4)c(=O)n32)cc1` (centres undefined) was tested, and the Potency was inconclusive: 20 µM [inhibitor, partial curve, poor fit]. In the case of `CCOc1ccc(CCNC(=O)CSCc2nc(-c3cccc(C)c3)oc2C)cc1OCC`, the Potency is reported as inconclusive: 39.8 µM [activator, single point]. For `Cc1nc(NCc2ccccc2)c2nc(-c3ccccc3)n(CCCN(C)C)c2n1`, the max response, negative = inhibition was inactive: -6.73%. `CCOc1ccccc1N(CC)C(=O)c1ccc2c(=O)n3c(nc2c1)CCCCC3` was tested, and the Potency was inconclusive: 31.6 µM [activator, single point]. In the case of `CCCCCn1c(CN2CCN(c3cccc(Cl)c3)CC2)nc2c1c(=O)n(C)c(=O)n2C`, the Potency is reported as inconclusive: 25.1 µM [activator, partial curve]. `CN1CCc2c(n(CC(O)CN3C(=O)c4ccccc4S3(=O)=O)c3ccccc23)C1=O` (centres undefined) was tested, and the Potency was inconclusive: 39.8 µM [activator, single point]. With `Cc1ccc(S(=O)(=O)Oc2ccc(N=Nc3ccc(-c4ccc(N=Nc5c(O)ccc6cc(S(=O)(=O)O)cc(S(=O)(=O)O)c56)c(C)c4)cc3C)cc2)cc1` the Potency was inconclusive: 10 µM [activator, partial curve]. With `O=C(COC(=O)CCOc1ccccc1)Nc1ccc(Cl)cn1` the max response, negative = inhibition was inactive: -2.06%. `CCOC(=O)c1c(C)[nH]c(N=Nc2cccc(C)c2)c1C` was tested, and the Potency was inconclusive: 39.8 µM [activator, single point]. With `CC(C)=CCCC(C)C1CC[C@@]2(C)C3=C(CC[C@@]12C)C1(C)CCC(O)C(C)(C)C1CC3` (some centres undefined) the Potency was inconclusive: 39.8 µM [activator, single point]. In the case of `CCOC(=O)C1=C(CSc2nc3c(cc2C#N)CN(C)CC3)OC(N)=C(C#N)C1c1ccccc1` (centres undefined), the max response, negative = inhibition is reported as inactive: -6.01%. For `COc1ccccc1/C=C/C=N/n1c(-c2ccc(C)cc2)n[nH]c1=S`, the Potency was active: 10 µM. `CCC1=C(OC(=O)N(CC)CC)N2C(=O)OC(=NCC3CC3)[C@]2(Cc2ccccc2)[C@H]2C1=CC[C@H]1C(=O)N(CC(=O)OC)C(=O)[C@H]12` was tested, and the Potency was inconclusive: 25.1 µM [activator, single point].
